Measured values published in the RNAGym collection of RNA variant scans (doi:10.1093/nar/gkz1192).
Read counts are not given, so values of variants with three or more changes are uncertain.

B1: CPEB3 Ribozyme (parent)
chain: UAACAGGGGGCCACAGCAGAAGCGUUCACGUCGCAGCCCCUGUCAGAUUCUGGUGAAUCUGCGAAUUCUGCUGUAUAUCUC

Variants of: B1
Assay: self-cleavage, relative activity (ratio to wild type); higher = more cleavage; in vitro, sequencing
Summary of the method: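 Relative activity was defined as the cleaved/total read fraction for a variant divided by the same fraction for the unmutated ribozyme. CPEB3 self-cleaving ribozyme libraries were made by rounds of error-prone PCR, barcoded, and transcribed in vitro with T7 RNA polymerase for 5 hours at 37°C, and cleavage ran through transcription plus a 15 min DNase I step before EDTA. Illumina sequencing of template-switched reverse transcripts gave the reads, and DNA sequencing mapped the barcodes. Averages come from three batches, using variants with at least 5 reads.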

| Variant | self-cleavage |
| --- | --- |
| A3G C38A A57G U60C U78C | 0.04 |
| A3G C38A U49C U54C | 0.08 |
| A3G C39A G73C | 0.51 |
| A3G C40U A45G U67C U69C C71U | 0.1 |
| A3G C40U U43G U60C U80C | 0.22 |
| A3G C44A A45G U60G | 0.14 |
| A3G C44U U58A U60C | 0.08 |
| A3G G6A A18G C38A U67C | 0.24 |
| A3G G6A A18G U25C U51C | 0.12 |
| A3G G6A A28G A47G A57G | 0.34 |
| A3G G6A A64U U80C | 0.46 |
| A3G G6A C11U A20G C23U U54A A64G | 0.04 |
| A3G G6A G33A U60A | 0.04 |
| A3G G6A U48C U69C | 0.14 |
| A3G G6U A13U G52A U69A | 0.16 |
| A3G G6U A15G U43A U51C A56G U78C | 0.19 |
| A3G G6U A20G A28G G36U A65G U78G | 0.04 |
| A3G G6U A57G U76A | 0.72 |
| A3G G7A A15U A57G A64G | 0.08 |
| A3G G7A A18C G30U U48C A65G | 0.22 |
| A3G G7A C12U A35G U49C U72C | 0.06 |

| Variant | self-cleavage |
| --- | --- |
| A3G G7A U25C U41C U60A U72A | 0.09 |
| A3G G7A U31A C59A | 0.21 |
| A3G G7A U41C U69A | 0.28 |
| A3G G7A U43C A65G U80C | 0.06 |
| A3G G7A U54C A77U | 0.1 |
| A3G G7C G53C A57G C62A G73A | 0.06 |
| A3G G7U A13G A20U U25C A35G | 0.11 |
| A3G G8A A35U | 0.51 |
| A3G G8A A56G | 0.39 |
| A3G G8A U43G A64G U69C A75G U80C | 0.06 |
| A3G G8C G10C U26C C37U U72C | 0.06 |
| A3G G8U A13U G19C U26C U58C | 0.07 |
| A3G G8U A13U U41A U49C A77U | 0.34 |
| A3G G8U A20U U25A A45U G63A U72A | 0.04 |
| A3G G8U A47G A64G U80C | 0.06 |
| A3G G8U C12G A18U U54A C62U U67C | 0.05 |
| A3G G8U U66C | 0.13 |
| A3G G9C A21G A64G U74C A77G | 0.12 |
| A3G G9U A15U A28G A35G U43C U60G | 0.05 |
| A3G G9U A18C | 0.05 |
| A3G G9U A21G U26C U31A A45G G70A | 0.06 |

| Variant | self-cleavage |
| --- | --- |
| A3G G9U A35C A77G | 0.37 |
| A3G G10A A18G A21U U48C G63A A64G | 0.04 |
| A3G G10A A35G A64G | 0.53 |
| A3G G10A A35G U49C A56U A65U | 0.17 |
| A3G G10A U25A A28G U69G U78A | 0 |
| A3G G10A U41A U51A G61U U66C U67C | 0.06 |
| A3G G10C U43C C62A G73U | 0.05 |
| A3G G10U C12U U31C A35U A64G | 0.06 |
| A3G G16A A56U U60C A64U U72C | 0.11 |
| A3G G16A U31A A45C U49C U54C | 0.02 |
| A3G G16U A28G C50A | 0.09 |
| A3G G19C A35G U67C U69C | 0.26 |
| A3G G19C A56C A64G C81A | 0 |
| A3G G19C C32A A56C U74C | 0.07 |
| A3G G19U C79A | 0.6 |
| A3G G19U U80C | 0.55 |
| A3G G22A C38U U43C A47G U67A | 0.04 |
| A3G G22A U25C U60A C62U U69G U74A | 0 |
| A3G G22C A47U C50A A64G | 0.19 |
| A3G G22C U25A U43C C68A U78G | 0.07 |
| A3G G24A U31G U69C U76C | 0.08 |

| Variant | self-cleavage |
| --- | --- |
| A3G G24U G46C U48C U67C U74A | 0.09 |
| A3G G30A A35U A47G | 0.17 |
| A3G G30A C39U G42A | 0.27 |
| A3G G30A U43C A64G U72A | 0.07 |
| A3G G30A U66C | 0.24 |
| A3G G30U U43A U54A U58A | 0.33 |
| A3G G33A A47U | 0.38 |
| A3G G33A U66G U67A U78A | 0.31 |
| A3G G33C U49C | 0.09 |
| A3G G33U A35U A57U | 0.08 |
| A3G G33U U78C | 0.1 |
| A3G G36C U41A A56G U60A | 0.14 |
| A3G G36U A56G G73A U78A | 0.27 |
| A3G G36U U49A U78C | 0.24 |
| A3G G42U A45G U74A A77G | 0.47 |
| A3G G53A A57G | 1.11 |
| A3G G55A A56G U58G | 0.21 |
| A3G G61A C62G U72A U76C | 0.32 |
| A3G U25A A57U | 0.14 |
| A3G U25A U66A | 0.58 |
